In publication PMC4336329 (PLoS ONE, 2015):
In all, about 310,000 compounds went through this assay and about 2,200 (0.71%) showed an effect of 50% or more. Effects have a minus sign here. The list shows a part of the results.

Each compound was assayed against human ether-à-go-go-related gene (hERG) potassium channel (human, UniProt Q12809) (assay: primary screen, population patch clamp on CHO cells stably expressing hERG).
Sequence of human ether-à-go-go-related gene (hERG) potassium channel (Q12809 whole entry, looked up): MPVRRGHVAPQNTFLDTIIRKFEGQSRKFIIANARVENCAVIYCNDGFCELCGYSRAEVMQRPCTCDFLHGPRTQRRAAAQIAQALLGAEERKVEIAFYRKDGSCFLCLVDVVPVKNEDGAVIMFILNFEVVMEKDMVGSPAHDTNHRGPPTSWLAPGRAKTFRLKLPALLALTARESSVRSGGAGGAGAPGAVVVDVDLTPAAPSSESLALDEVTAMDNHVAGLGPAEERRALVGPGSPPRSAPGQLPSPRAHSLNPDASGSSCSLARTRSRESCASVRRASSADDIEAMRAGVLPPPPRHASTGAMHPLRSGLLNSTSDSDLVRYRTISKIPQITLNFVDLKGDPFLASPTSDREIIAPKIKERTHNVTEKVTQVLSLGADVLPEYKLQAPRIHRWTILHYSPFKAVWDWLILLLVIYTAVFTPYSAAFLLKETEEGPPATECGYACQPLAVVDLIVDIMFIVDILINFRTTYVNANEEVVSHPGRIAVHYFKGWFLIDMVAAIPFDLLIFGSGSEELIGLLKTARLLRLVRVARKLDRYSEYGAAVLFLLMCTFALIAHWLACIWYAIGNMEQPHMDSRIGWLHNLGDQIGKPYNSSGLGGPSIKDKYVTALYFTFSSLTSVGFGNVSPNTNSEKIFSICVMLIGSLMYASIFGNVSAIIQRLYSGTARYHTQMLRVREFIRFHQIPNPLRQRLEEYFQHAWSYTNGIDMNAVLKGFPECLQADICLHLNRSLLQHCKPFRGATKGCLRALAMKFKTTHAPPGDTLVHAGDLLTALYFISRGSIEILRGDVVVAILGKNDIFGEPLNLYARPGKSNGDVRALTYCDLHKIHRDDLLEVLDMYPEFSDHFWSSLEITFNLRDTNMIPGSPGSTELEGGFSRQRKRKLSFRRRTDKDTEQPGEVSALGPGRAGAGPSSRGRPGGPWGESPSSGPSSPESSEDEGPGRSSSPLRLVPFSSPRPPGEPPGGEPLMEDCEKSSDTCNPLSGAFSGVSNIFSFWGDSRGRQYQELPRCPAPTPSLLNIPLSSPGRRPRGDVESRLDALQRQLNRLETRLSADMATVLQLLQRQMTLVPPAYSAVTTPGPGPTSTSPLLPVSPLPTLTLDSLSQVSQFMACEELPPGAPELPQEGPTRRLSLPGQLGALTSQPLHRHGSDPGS

Structure (SMILES)	hERG current change (%, negative = inhibition) at 1uM [%]
CCCC(C(=O)c1ccccc1)n1cncn1 (centres unmarked)	18.2
Cc1cccc(NC(=O)c2cc([N+](=O)[O-])ccc2N2CCCCC2)n1	0.983
COc1cc(C(=O)NC(c2ccccc2)c2ccccc2)cc(OC)c1OC	13.7
COc1ccc(NC(=O)c2cccnc2Sc2ccccc2)c(OC)c1	14
COc1ccc(NS(=O)(=O)c2ccc(O)c(C(=O)OCC(=O)NC3CCCCC3)c2)cc1	9.36
COc1ccccc1N(CC(=O)N/N=C/c1ccccc1C(=O)O)S(C)(=O)=O	10.5
N#Cc1cc([N+](=O)[O-])ccc1NCC1CCCO1 (centres unmarked)	10.3
COc1ccc(-c2nc(C)sc2CC(=O)O)cc1OC	5.37
Cc1ccc(Nc2nc(Oc3ccc(OCc4ccccc4)nn3)nc(N3CCOCC3)n2)cc1	11.6
C/C=C(/C)C(=O)Nc1cccc(C2=NOC3(C2)C[C@@H](C(N)=O)N(C(=O)CCCCC)C3)c1 (some centres unmarked)	-16.1
CC(C)OCCCNC(=S)NNC(=O)C(c1ccccc1)c1ccccc1	8.72
CC(NC(=O)c1cccs1)C1CCCO1 (centres unmarked)	14.1
Cl.O=C(NCCCn1ccnc1)c1ccc(S(=O)(=O)N2CCCCCC2)cc1	9.74
COc1cc2c(cc1OC)C(C)N(C(=O)CCN1C(=O)C3C4C=CC(C4)C3C1=O)CC2 (centres unmarked)	9.39
Cc1cnc(NC(=O)c2cc3c(C)nn(Cc4ccccc4Cl)c3s2)s1	6.03
CCOC(=O)C(NC(=O)c1ccccc1)=C(C)C	12
S=C(Nc1ccccc1Cl)NC1CC2CCCC(C1)N2C1CC1 (centres unmarked)	1.02
CN(C)c1cccc(/C=C(\C#N)c2ccccc2)c1	14.2
CCC(Sc1nnc(-c2ccc(C)c(Cl)c2)n1CC)C(=O)Nc1nccs1 (centres unmarked)	8.86
CN1CCN(/N=C/c2ccc(N(C)c3ccccc3)cc2)CC1	-2.11
